In PubChem BioAssay AID504845 (National Center for Advancing Translational Sciences (NCATS), 2011):
Several values for one entry are separate records, joined by “and”; a condition that tells them apart may be missing. Equal values may be shown once. In all, about 390,000 compounds went through this assay and about 150 (0.038%) were called active. Another 3% or so got no clear call; they are omitted. The call rests on the fitted dose curve; in most records, active means well fitted inhibition curve with a large enough effect; inconclusive means small, poorly fitted or top-dose-only effect; inactive means no such curve, though single readings can be large or run the other way. Only a part is listed here, and it is no random draw. Some structures have more than one record in an assay (separate samples or runs), and their calls can disagree.

The molecules below were run against Regulator of G-protein signaling 4 (Homo sapiens) (UniProt P49798) (assay: Inhibitors of Regulator of G Protein Signaling (RGS) 4: qHTS). Conditions: Transcreener GDP fluorescence polarization, RGS4-accelerated GTP hydrolysis; series mostly up to 114 µM; activity change, negative = inhibition: at the top concentration.
In short: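 MLSMR compounds (23 nl, pin-transferred) preincubated 10 min at room temperature with a 500nM (2x) first reagent, then RGS4 at 900nM (2x) plus Transcreener GDP mix added; fluorescence polarization (620/688 nm) read before and after 90 min at 30 °C.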
Further: nearly all actives have a fitted effect of over 75% in size.
On the % scale 0 is the no-effect control and ±100 the full control effect; potency means the concentration at half of the fitted maximal effect.

UniProt P49798, sequence (P49798 whole entry, looked up): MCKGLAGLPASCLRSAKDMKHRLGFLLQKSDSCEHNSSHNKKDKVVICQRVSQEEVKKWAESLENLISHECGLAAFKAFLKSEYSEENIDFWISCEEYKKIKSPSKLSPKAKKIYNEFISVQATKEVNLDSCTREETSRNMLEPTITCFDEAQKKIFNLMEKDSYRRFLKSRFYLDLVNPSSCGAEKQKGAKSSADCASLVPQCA

Activity change, negative = inhibition, inactive:
COC(=O)C1=C[C@@H](C(=O)OC)C2C3=C(C(=O)[C@]2(CC(C)C)NC(=O)c2ccccc2)[C@H](C)n2c(=O)n(-c4ccccc4)c(=O)n2[C@@H]3C1 (stereo partly specified) 5.21%
O=C(NCCCO)c1ccc2nc(-c3ccco3)c(-c3ccco3)nc2c1 -50.6%
Cc1ccc2c(c1)N(CCCC(=O)Nc1cccc(C(F)(F)F)c1)C(=O)CO2 9.98%
COc1ccccc1N1CCN(C2CCCN(C(=O)c3ccoc3)C2)CC1 (stereo unspecified) 71.9%
O=c1c2ccccc2ncn1-c1ccc(Cl)cc1 -13.3%
C[C@@H](NC(=O)/C(C#N)=C/c1ccc(O)c(O)c1)c1ccccc1 11%
COc1cccc(CNc2ccc3nc(-c4ccc(N)cc4)c(OC)n3n2)c1 -22% [at 56.9 µM]
CC[n+]1c(/C=C2/C=C(C)CC(C)C2)sc2ccccc21 (stereo unspecified) -38.1% [at 11.4 µM]
CCOc1cccc(C(c2c(C)n(C)n(-c3ccccc3)c2=O)c2c(C)n(C)n(-c3ccccc3)c2=O)c1OC -12.2%
O=C(Nc1ccc(C(=O)Nc2ccc(C(=O)Nc3ccc(S(=O)(=O)O)c4cc(S(=O)(=O)O)cc(S(=O)(=O)O)c34)cc2)cc1)Nc1ccc(C(=O)Nc2ccc(C(=O)Nc3ccc(S(=O)(=O)O)c4cc(S(=O)(=O)O)cc(S(=O)(=O)O)c34)cc2)cc1 31.7% [at 56.9 µM]
CC1(C)C2CCC13CS(=O)(=O)NC3C2 (stereo unspecified) -5.56%
CCc1nnc(NC(=O)C2CCC2)s1 54.1%
O=c1c2ccccc2sn1-c1ccc(S(=O)(=O)N2CCCCC2)cc1 -137%
N#Cc1ccc(N=c2ssnc2Cl)cc1 -119%
Cc1c(C)[n+](=O)c2c(n1[O-])CCCCC2 57.1%
NS(=O)(=O)c1cccc2c1c([N+](=O)[O-])cc1nc(O)c(O)nc12 -14.6%
CC(C)c1c(C(=O)N/N=C/c2cccc(OCc3ccc(F)cc3)c2)nnn1-c1nonc1N 58.2%
CN1CCc2ccccc2Cc2[nH]c3ccccc3c2CC1 9.13%
CCn1cc(CCC(=O)NCc2ccc(F)cc2)c2ccccc21 -18.1%
CC(C)(C)n1nc(-c2ccc(Cl)cc2)c2c(N)ncnc21 22.4%
NC(=O)C1CCN(c2oc(/C=C/c3ccccc3)nc2S(=O)(=O)c2ccccc2)CC1 60.5%
CSc1ccc(C(=O)c2[nH]c(=O)[nH]c2C)cc1 -31.7%
COc1cc2ncc(-c3ccccc3)nc2cc1OC 440% [at 56.9 µM]
Cc1cc(=O)oc2cc(OCC(=O)NCCN3CCOCC3)c(Cl)cc12 59.5%
NC12CC3CC(CC(C3)C1)C2 -26.2%
O=C(O)c1cc(O)c2c(c1)[C@@H]([C@H]1c3cc(C(=O)O)cc(O)c3C(=O)c3c(O[C@@H]4O[C@H](CO)[C@@H](O)[C@H](O)[C@H]4O)cccc31)c1cccc(O[C@@H]3O[C@H](CO)[C@@H](O)[C@H](O)[C@H]3O)c1C2=O -120%
Cc1ccc(NC(=O)CCC(=O)Nc2nnc(C3CCCCC3)s2)cc1 55.4%
COc1cccc(NC(=O)c2ccc3c(c2)C(=O)N(CC2CCCO2)C3=O)c1 (stereo unspecified) 63.7%
C=CC[C@H](N)C(=O)O -7.02% [at 56.9 µM]
CCCCCCCCCCC1=C(C)C(=O)C(OC)=C(OC)C1=O 150% [at 56.9 µM]
CN(Cc1ccco1)S(=O)(=O)c1nnc(NC(=O)c2ccccc2)s1 8.97%
c1cnc2c(c1)ccc1cccnc12 -3.4%
CCc1cc2c3c(c(=O)oc2cc1OC(C)C(=O)O)CCCC3 (stereo unspecified) 84.1%
CCC(NC(C)C)C(O)c1ccc(O)c(O)c1 (stereo unspecified) -4.7%
O=C(N/C(=C/c1ccccc1)C(=O)N1CCCCCC1)c1ccccc1 2.23%
N[C@H](CO)C(=O)O 8.08% [at 56.9 µM]
O=C(O)CCC/C=C\C[C@@H]1[C@@H](/C=C/[C@@H](O)COc2cccc(Cl)c2)[C@H](O)C[C@@H]1O 240% [at 56.9 µM]
Cc1ccc(-n2nnnc2SCC(=O)N(CC(C)C)c2c(N)n(CC(C)C)c(=O)[nH]c2=O)cc1 76.7%

Potency, inactive:
CC(=O)SCC[N+](C)(C)C
O=C1NCN(c2ccccc2)C12CCN(CCCC(c1ccc(F)cc1)c1ccc(F)cc1)CC2
CC(C)COCC(CN(Cc1ccccc1)c1ccccc1)N1CCCC1 (stereo unspecified)
Cc1[nH]c(=O)c(C#N)cc1-c1ccncc1
COc1ccc2[nH]c(S(=O)Cc3ncc(C)c(OC)c3C)nc2c1 (stereo unspecified)
CN1CCC(=C2c3ccccc3CC(=O)c3sccc32)CC1
COc1ccccc1N1CCN(CC(O)COc2cccc3ccccc23)CC1 (stereo unspecified)
CCOC(=O)C(C)(C)Oc1ccc(Cl)cc1
CC(C)NC[C@H](O)COc1ccc(CC(N)=O)cc1

Potency, active:
O=[N+]([O-])c1ccc2c(c1)S(=O)(=O)C=C2 21.2 µM
CC(N)(Cc1ccc(O)c(O)c1)C(=O)O (stereo unspecified) 10.6 µM
O=C1Cc2cc(CCN3CCN(c4nsc5ccccc45)CC3)c(Cl)cc2N1 16.8 µM

Potency, inactive and 18.9 µM (active):
CCCCCCCCCCCCCCCC(=O)OC(CC(=O)O)C[N+](C)(C)C (stereo unspecified)
